Molecules are shown by their SMILES. Out of some 45,000 compounds screened, about 200 (0.44%) were called active. Not shown: some 7% with an inconclusive outcome. The call rests on the fitted dose curve; in most records, active means well fitted activation curve with a large enough effect; inconclusive means small, poorly fitted or top-dose-only effect; inactive means no such curve, though single readings can be large or run the other way. The list shows a part of the results.

The experiment in a line: qHTS of TDP-43 Inhibitors: NCGC Sytravon Library Screen. Further: 0% is about no effect; nearly all actives have a fitted effect of over 55% in size. The settings on record: yeast TDP-43 toxicity rescue, BacTiter-Glo growth, 24 h; series mostly up to 46.1 µM; growth rescue (activation): at the top concentration. The gist of the method:
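TDP-43-expressing yeast, pregrown in raffinose, seeded at OD600 0.02 in galactose medium with compound for 24 hr at 30 deg C. Growth read by BacTiter-Glo luminescence, so rescue of toxicity appears as activation.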
With `COc1cc(-c2nc3ccccn3c2/N=C/c2ccc(F)cc2)ccc1O`, the “growth rescue (activation)” value was inactive: -2.56%.
Under `CCCCOC(=O)C1C2C=C[C@]3(CN(CCCOC)C(=O)[C@H]13)O2` (stereo partly specified) stands inactive: 20.6%; under `Cc1ccc(-n2cnc3sc(C)c(C)c3c2=O)cc1`, inactive: 3.06%.
For the molecule `N#Cc1c(-c2ccccc2)cc2nc3ccccc3n2c1N`, the “growth rescue (activation)” value was inactive: -12.7%.
Under `CN(C)S(=O)(=O)c1cccc(NC(=O)COC(=O)/C=C/c2ccc3c(c2)OCO3)c1` stands inactive: -7.68%; under `NS(=O)(=O)c1ccc(O)c(NC(=O)c2ccc([N+](=O)[O-])cc2)c1`, inactive: 11.5%; under `COc1ccc(N2CC(NC(=O)COc3ccc(F)cc3)CC2=O)cc1OC` (stereo unspecified), inactive: 5.43%.
Next, `O=C(CSCc1ccc(Cl)c(Cl)c1)Nc1c[nH]c(=O)[nH]c1=O`: inactive: 6.48%.
Next, `c1cn(CCCNc2ncnc3sc4c(c23)CCC4)cn1`: inactive: 13.6%.
On to `COc1ccc(-c2cc(C(=O)Nc3c(C)n(C)n(-c4ccccc4)c3=O)c3ccccc3n2)cc1`, for which the “growth rescue (activation)” value was inactive: 3.55%.
Turning to `CCCCC(=O)Nc1cccc(NC(=S)NC(=O)Cc2ccccc2)c1`, the “growth rescue (activation)” value was inactive: 8.41%.
Under `Cc1ccsc1/C=N/NC(=O)c1ccc2nc[nH]c2c1` stands inactive: 12.9%; under `Cc1onc(-c2ccccc2)c1C(=O)Nc1nnc(CC(C)(C)C)s1`, inactive: 7.05%.
Next, `Cc1ccc(S(=O)(=O)c2nc(Cc3ccccc3)oc2N2CCOCC2)cc1`: inactive: -0.483%; `CC(=O)Nc1ccc(C(=O)N(C)c2ccccc2)cc1`: inactive: 1.49%.
In the case of `COc1ccc(C(=O)Nn2c(SCc3ccc([N+](=O)[O-])cc3)nc3ccccc3c2=O)cc1`, the “growth rescue (activation)” value was inactive: 13.4%.
Next, `COc1cc(C(=O)/C=C/c2cccnc2)ccc1O`: inactive: -8.25%; `Cc1ccc(Cl)cc1N1CCN(C(=O)c2ccc(NS(=O)(=O)c3c(C)noc3C)cc2)CC1`: inactive: 12.2%.
Next, `CN1CCN(/N=C/c2ccc(Br)cc2)CC1`: inactive: -7.61%; `COc1ccc(C(=O)C2CCCN(C(=O)c3ccoc3C)C2)cc1F` (stereo unspecified): inactive: 16.7%.
As to `CCOC(=O)c1sc(NC(=O)CSc2nnnn2-c2ccc(C)cc2C)nc1C`, the “growth rescue (activation)” value is inactive: 7.47%.
Next, `CCOc1ccc(-c2cc(CCCC(=O)NCCC(C)C)no2)cc1`: inactive: 26%; `N#CC1=C(N)OC2=C(C(=O)CC(c3ccccc3)C2)C1c1cccnc1` (stereo unspecified): inactive: 10.7%; `CC(=O)Nc1ccc2c3c(cccc13)C(=O)N(c1ccccc1)C2=O`: inactive: 10.4%.
Regarding `CC(=O)N1CCN(CC(=O)Nc2cccc(S(=O)(=O)N3CCCCC3)c2)CC1`, the “growth rescue (activation)” value is inactive: 7.72%.
Under `N#CCCN1CCN(S(=O)(=O)c2ccc3c(c2)OCCCO3)CC1` stands inactive: -0.29%.
As to `COc1ccc(C)cc1NC(=O)C(c1ccccc1)N1CCN(CC(=O)N2CCOCC2)CC1` (stereo unspecified), the “growth rescue (activation)” value was inactive: 20.2%.
Under `CCn1c(CN2CCN(C(c3ccccc3)c3ccccc3)CC2)nc2c1c(=O)n(C)c(=O)n2C` stands inactive: -8.57%; under `CN(C)c1cccc(C(=O)OCC(=O)NC(=O)NCc2ccccc2)c1`, inactive: 8.6%; under `CCNC(=O)C1(C)CCCN(C(=O)c2sc(-c3ccccc3)nc2C)C1` (stereo unspecified), inactive: 7.77%.
Turning to `CN(CC(=O)Nc1ccc(Cl)cc1F)C1=NS(=O)(=O)c2ccccc21`, the “growth rescue (activation)” value was inactive: 4.09%.
On to `CC1(C(=O)NS(=O)(=O)c2ccc(Cl)cc2)CCN1C(=O)CCc1ccc(Cl)cc1Cl` (stereo unspecified), for which the “growth rescue (activation)” value is inactive: 15.2%.
With `CCCS(=O)(=O)NC(=O)C1(C)CCCN(C(=O)COc2ccc(Cl)cc2Cl)C1` (stereo unspecified), the “growth rescue (activation)” value is inactive: -7.48%.
For `COc1ccccc1CNc1nc(NCc2ccccc2F)c2sccc2n1`, the “growth rescue (activation)” value was inactive: 7.29%.
Next, `Cn1cc(/C=C/c2cc[n+](C)cc2)c2cc(Cl)ccc21`: inactive: -23.6%; `Cc1ccc(S(=O)(=O)Nc2ccc(NC(=O)Nc3cccc(C(F)(F)F)c3)cc2)cc1`: inactive: -8.73%; `CN(C)c1ccc(C2C3=C(CCCC3=O)OC3=C2C(=O)CCC3)cc1`: inactive: 5.32%.
Under `CC1(C(=O)NCC2CCOCC2)Cc2c(-c3cccc(C(N)=O)c3)ccnc2O1` (stereo unspecified) stands inactive: -11.3%; under `Cc1nc2sc(C(=O)O)c(N)c2c2c1COC(C)(C)C2`, inactive: 29.1%; under `O=C(O)CCC(=O)NNC(=O)COc1cccc(Cl)c1`, inactive: -4.89%.
On to `NC(=O)NC(=O)CN1C(=O)NC(c2ccccc2)(c2ccccc2)C1=O`, for which the “growth rescue (activation)” value was inactive: 3.59%.
For the molecule `Cc1c(NC(=O)C(C)Oc2ccc(Br)cc2)c(=O)n(-c2ccccc2)n1C` (stereo unspecified), the “growth rescue (activation)” value is inactive: 3.51%.
Next, `CSc1nsc(SC)c1C(=O)NCCNS(=O)(=O)c1ccc(C)cc1`: inactive: -5.09%; `O=C(N/N=C/c1c[nH]c2ccccc12)C1COc2ccccc2O1` (stereo unspecified): inactive: 18.4%; `Cc1ccc(CNC(=O)/C=C/c2ccc(S(=O)(=O)N3CCOCC3)cc2)cc1`: inactive: 11%.
Under `C=CCn1c(CNC(=O)c2ccco2)nnc1SCC(=O)c1ccc(F)cc1` stands inactive: 5.1%; under `CCc1c(C)c2cc(Cl)c(O)c(CN3CCCC3)c2oc1=O`, inactive: 13%.
Regarding `CCN1CCN(C(=O)c2cc3cc(Cl)ccc3[nH]2)CC1`, the “growth rescue (activation)” value was inactive: -3.51%.
Under `CCNC(=O)C1(C)CCN(Cc2ccc(C(F)(F)F)cc2)C1` (stereo unspecified) stands inactive: 0.971%.
Under `CN(C)CCNc1c2c(nc3nnnn13)CCCC2` stands inactive: 8.07%.
Next, `Cc1ccc(NC(=O)Cn2ccc(=O)[nH]c2=O)cc1`: inactive: 4.41%; `Cc1ccc(NC(=O)C2(C)CCN2CCc2ccccc2)cc1O` (stereo unspecified): inactive: 3.2%.
On to `COCCN1Cc2cccc(C(=O)Nc3ccc(C)cc3)c2C1=O`, for which the “growth rescue (activation)” value was inactive: 27%.
Take `Cc1nc(SCC(=O)Nc2ccc3[nH]c(=O)[nH]c3c2)nc(C)c1C`: the “growth rescue (activation)” value was inactive: -22.3%.
Next, `CCOc1ccc(C(=O)CCC(=O)NNC(=O)CCN2CCN(c3ccccc3)CC2)cc1`: inactive: 17.8%; `CC1=CC2=NC(=O)/C(=C\c3ccc(OC(=O)c4ccco4)cc3)C(=N)N2O1`: inactive: -2.65%; `O=C(/C=C/c1ccco1)Nc1ccc(F)cc1`: inactive: 25.4%.
Next, `CC(C)NC(=O)NC(=O)COC(=O)c1ccccc1O`: inactive: 26.4%.
For `COc1cc(C(=O)N2CCC(C(N)=O)CC2)ccc1OCc1c(C)noc1C`, the “growth rescue (activation)” value was inactive: -1.14%.
Under `O=C(CSCC(=O)NC1CCCC1)Nc1ccccc1` stands inactive: 2.65%.
Next, `O=P(COCCOCCOCP(=O)(c1ccccc1)c1ccccc1)(c1ccccc1)c1ccccc1`: inactive: 7.78%; `O=S(=O)(NC1CCCCC1)c1cccc2nsnc12`: inactive: -8.52%; `CC(NC(=O)COC(=O)c1cc(=O)[nH]c2ccccc12)c1ccccc1` (stereo unspecified): inactive: -3.18%.
Next, `Cc1cccc(C(=O)NC2CC3CCCC(C2)N3C(=O)Nc2ccccc2)c1` (stereo unspecified): inactive: -8.23%; `COc1cccc(OC)c1C(=O)Nc1ccc(N2CCN(C(=O)c3cccs3)CC2)cc1`: inactive: 5.51%; `CCc1cccc(C)c1NC(=O)C1CC=CCC1C(=O)O` (stereo unspecified): inactive: 2.19%.
Turning to `Cc1ccc(NC(=O)CN(C)C(=O)CSc2ccccc2F)cc1`, the “growth rescue (activation)” value is inactive: 22.7%.
Next, `O=c1c2sccc2n(Cc2cc(=O)n3ccccc3n2)c(=O)n1-c1cc(F)ccc1F`: inactive: 3.75%.
Under `CC(=O)Nc1ccc(S(=O)(=O)N(C)c2ccc(OCC(=O)OCC(=O)Nc3ccc(OC(F)F)cc3)cc2)cc1` stands inactive: -7.58%.
Under `Oc1ccc(/C=N/N2CCN(C3c4ccccc4-c4ccccc43)CC2)cc1` stands inactive: 5.41%; under `Cc1cc(C)cc(OCC(=O)OCC(=O)NC2CC2)c1`, inactive: 6.29%.
With `COc1cccc(CNc2nc(NC(C)C)nc3ccsc23)c1`, the “growth rescue (activation)” value is inactive: -0.448%.
Next, `O=C(N/N=C/c1c[nH]c2ccccc12)c1cccs1`: inactive: 19.2%.
Under `CC(=O)COc1ncn(-c2ccccc2)n1` stands inactive: 16.7%; under `Cc1cccc(Oc2nc3ccccn3c(=O)c2/C=C(\C#N)C(=O)NC2CCS(=O)(=O)C2)c1C` (stereo unspecified), inactive: -14.3%; under `COc1cccc(NC(=O)N2CCC(NC(=O)C3CCCCC3)CC2)c1`, inactive: 0.912%.
Next, `O=C(COc1ccccc1[N+](=O)[O-])Nc1ccc(CN2CCOCC2)cc1`: inactive: -1.52%; `Cc1ccc(C(=O)Nc2ccccc2C(=O)N2CCCC2)cc1[N+](=O)[O-]`: inactive: 11.7%.
In the case of `COc1ccc2[nH]c(O)c(N=O)c2c1`, the “growth rescue (activation)” value was inactive: 0.567%.
Under `CC(C)CCNC(=O)CN(C(=O)CCC(=O)Nc1nccs1)c1ccc2c(c1)OCCO2` stands inactive: 6.16%; under `COc1cc(C)c(NC(=O)c2cccc(S(=O)(=O)N3CCCC3)c2)cc1OC`, inactive: -9.5%.
Under `C[C@H](NC(=O)COc1ccccc1)C(=O)OCC(=O)c1cc2ccccc2o1` stands inactive: -3.26%; under `CSc1ccccc1NC(=O)CN(C)C(=O)CCc1c[nH]c2ccccc12`, inactive: -5.58%; under `CS(=O)(=O)c1ccc(-n2nnc3ccccc32)c([N+](=O)[O-])c1`, inactive: -14.9%.
Next, `O=C(Cc1ccccc1)Nc1ccc(NC(=O)c2cccnc2)cc1`: inactive: -3.33%.
Consider `Cc1ccc(S(=O)(=O)NCC(=O)N(CC(=O)NC(C)(C)C)Cc2ccc3c(c2)OCO3)cc1`, for which the “growth rescue (activation)” value was inactive: 5.64%.
Next, `CNc1cc(-c2ccc(C(=O)OC)cc2)ncn1`: inactive: -19.6%.
Next, `Cc1nc(SCC(=O)N2CCCCC2)c2c(C)c(C)sc2n1`: inactive: 7.24%.
Take `COc1cccc(-c2cc3nc(NCc4ccccc4OC)n(C)c(=O)c3s2)c1`: the “growth rescue (activation)” value was inactive: 8.02%.
`CC(=O)c1c(C)[nH]c(C(=O)COC(=O)c2cc(S(=O)(=O)N(C)c3ccccc3)ccc2Cl)c1C`: the “growth rescue (activation)” value was inactive: -14.8%.
Next, `CCc1ccc(NC(=O)COC(=O)CCCC2=NS(=O)(=O)c3ccccc3N2)cc1`: inactive: 8.51%.
Under `CCOC(=O)CC1=C(C(=O)OCC)C(c2cccs2)C(C#N)=C(N)O1` (stereo unspecified) stands inactive: -0.694%; under `COc1ccc(/C=C(/NC(=O)c2ccco2)C(=O)N2CCc3ccccc32)cc1OC`, inactive: 0.259%; under `COc1ccc(CCn2nnnc2CN2CCN(C(=O)c3ccco3)CC2)cc1OC`, inactive: 8.96%.
Next, `COc1ccc(F)cc1-c1cc(C(=O)NCc2ccc(F)cc2)[nH]n1`: inactive: 27.2%.
On to `COCCn1cnc2c1c(=O)n(CC(=O)OCC(=O)NCC(F)(F)F)c(=O)n2Cc1ccccc1`, for which the “growth rescue (activation)” value is inactive: -22.6%.
Next, `COc1ccc(CCNc2ncccc2C#N)cc1OC`: inactive: 11.7%.
With `Cc1ccc(C)c(CN2CCC(CNC(=O)Nc3ccc(C)c(C)c3)CC2)c1`, the “growth rescue (activation)” value is inactive: 6.53%.
Next, `COc1cc2c(cc1OC)C1CC(=O)C(CC(C)C)CN1CC2` (stereo unspecified): inactive: 11%.
Next, `CSCCC(N=C(NS(=O)(=O)c1ccc(Br)cc1)c1ccccc1)C(=O)O` (stereo unspecified): inactive: 3.43%.
`O=C1C=C(Nc2ccc(O)cc2)C(=O)c2ccccc21`: the “growth rescue (activation)” value was inactive: -3.39%.
Regarding `O=C(CCCOc1ccccc1)OCn1nnc2ccccc2c1=O`, the “growth rescue (activation)” value was inactive: 17.8%.
Regarding `CCOc1ccc(NC(=S)N2CCC(C(O)(c3ccccc3)c3ccccc3)CC2)cc1`, the “growth rescue (activation)” value is inactive: -13%.
Next, `CC(=O)Nc1cccc(-c2ccnc3c2CC(C)(C(=O)Nc2ccc(C(C)C)cc2)O3)c1` (stereo unspecified): inactive: 5.38%.
Under `CCCCNC(=S)Nc1cc([N+](=O)[O-])ccc1C` stands inactive: 11%; under `FC(F)Sc1ccc(NC(=S)NC(c2ccccc2)c2ccccc2)cc1`, inactive: 8.48%.

Source of the values: PubChem BioAssay AID1347073 (National Center for Advancing Translational Sciences (NCATS), 2019).
